The campaign covered roughly 46,000 compounds. About 60 (0.1%) were called active. Roughly 3% stayed inconclusive and do not appear here. The call rests on the fitted dose curve; in most records, active means well fitted inhibition curve with a large enough effect; inconclusive means small, poorly fitted or top-dose-only effect; inactive means no such curve, though single readings can be large or run the other way. Some of the results follow.

This test is described as follows: Primary qHTS assay for Inhibitors of ovarian cancer metastasis using an organotypic tumor microenvironment (TME) model. Further: nearly all actives have a fitted effect of over 65% in size.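 On activity change, negative = inhibition: plate controls were DMSO wells for no effect and tomatine positive control wells for full effect.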 As to conditions: SKOV3ip1-GFP adhesion/invasion on 3D omental model, fluorescence; series mostly up to 45.8 µM; activity change, negative = inhibition: at the top concentration. The gist of the method:
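qHTS, 4-pt dose (0.36-46 umol/L); SKOV3ip1-GFP, 1,200 cells/well, no FBS; primary omental fibroblast/mesothelial co-culture 48 h pre-grown; 2 h RT + 16 h 37 C; PBS wash, 4% PFA; GFP count 488/509 nm.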
(Quantitative high-throughput screening tests each substance at several concentrations.)
On to `CCn1cnc2cc(NCc3ccc(N(C)C)cc3)ccc21`, for which the result was inactive. In the case of `CCOC(=O)N1CCN(CCC(=O)Nc2cc(C)ccc2C)CC1`, the result was inactive. Consider `CC(C)c1ccc(NC(=O)CN(C)S(=O)(=O)c2ccc3c(c2)n(C)c(=O)c(=O)n3C)cc1`, for which the “activity change, negative = inhibition” value is inactive: -12.1%. On the same count and under the same terms, under `CCc1ccc(CNC(=O)c2cnc3sc(N4CCCCCC4)nn3c2=O)cc1` stands inactive: -23.2%. For the molecule `CCOc1ccc(C(=O)Nc2ccc3nc(SCC(=O)N4CCCC4)sc3c2)cc1`, the outcome was inactive. On the same count and under the same terms, under `CCn1cc2nc(SCC(=O)Nc3cccc(Cl)c3C)n(Cc3ccc(Cl)cc3)c(=O)c2n1` stands “inactive”. Turning to `CCC1CCCCN1C(=O)CSc1nc(-c2ccc(OC)cc2)cc(C(F)(F)F)n1` (stereo unspecified), the “activity change, negative = inhibition” value is inactive: 9.95%. On the same count and under the same terms, under `Cc1ccccc1Cn1c(=O)n(CCCCCC(=O)NCc2ccc3c(c2)OCO3)c(=O)c2sccc21` stands inactive: -5.37%; under `O=C(Cn1ncc2c3ccccc3n(Cc3cccc(Cl)c3)c2c1=O)NCCC1=CCCCC1`, inactive: 8.16%; under `CCOC(=O)c1ccc(NC(=O)CN2C(=O)c3cccnc3Sc3ccccc32)cc1`, inactive: 4.7%.

`COc1ccc(Nc2ncc(C(=O)N3CCN(c4ccccc4OC)CC3)c3ccccc23)cc1`: the result was inactive.

With `CCOc1ccc(C(=O)NCCc2sc(-c3ccc(F)cc3)nc2C)cc1`, the “activity change, negative = inhibition” value is inactive: -0.898%. Turning to `CCOc1ccc(NC(=O)Nc2c[nH]c(=O)[nH]c2=O)cc1`, the outcome was inactive. Regarding `Cn1c(SCc2ccccc2Cl)nc(=O)c2c1NC(=O)CC2c1cc(F)ccc1F` (stereo unspecified), the “activity change, negative = inhibition” value was inactive: 5.45%.

Take `COc1ccc(NC(=O)CSc2ncc3c(n2)-c2ccccc2N(C)S3(=O)=O)cc1Cl`: the “activity change, negative = inhibition” value is inactive: -14.5%. Consider `CCN(CC)c1ccc(CNS(=O)(=O)c2cc3c(cc2C)NC(=O)CO3)cc1`, for which the “activity change, negative = inhibition” value is inactive: -2.04%. With `CCOc1ccccc1CNC(=O)c1ccc2c(c1)nc1n2CCC(C)C1` (stereo unspecified), the call was inactive.

Consider `CCOC(=O)c1ccccc1NC(=O)Cn1c(=O)n(-c2ccc(CC)cc2)c(=O)c2c(C)c(C(=O)N(C)C)sc21`, for which the “activity change, negative = inhibition” value is inactive: -8.72%. Still for that read-out and setting: under `Nc1ncc(S(=O)(=O)Nc2ccc(OC(F)(F)F)cc2)cn1` stands inactive: -4.05%. Regarding `Cc1ccc(CSc2cn(CCNC(=O)c3cccs3)c3ccccc23)cc1`, the “activity change, negative = inhibition” value was inactive: 7.81%. For `O=C(Nc1ccc(F)c(Cl)c1)C1CCN(S(=O)(=O)c2ccc3c(c2)CCCN3C(=O)C2CCC2)CC1`, the “activity change, negative = inhibition” value was inactive: 0.713%.

`Cc1ccc(N2CC(NC(=O)c3ccccc3Br)CC2=O)cc1` (stereo unspecified): the “activity change, negative = inhibition” value is inactive: -0.492%.

Consider `CC(=O)c1ccc(N2C(=O)Nc3ccccc3S2(=O)=O)cc1`, for which the result was inactive. Take `CC(C)Sc1nc2sc3c(c2c(=O)n1-c1ccccc1)CCCC3`: the “activity change, negative = inhibition” value was inactive: 3.66%. Turning to `CCC(=O)Nc1cccc(OCc2cc(=O)n3cc(C)ccc3n2)c1`, the call was inactive. As to `COC(=O)c1ccc(Oc2nc3c(c(=O)n(C)c(=O)n3C)n2Cc2ccc(Cl)c(Cl)c2)cc1`, the molecule was classed as inactive.

Turning to `CC1=C(C(=O)Nc2ccccc2)C(c2ccccn2)n2nc(SCc3ccccc3Cl)nc2N1` (stereo unspecified), the “activity change, negative = inhibition” value was inactive: 13.2%. With `CN(C)CC(C)(C)CNc1nn2c(-c3ccccc3)nnc2cc1C1CCC1`, the “activity change, negative = inhibition” value was inactive: -16.1%. On the same count and under the same terms, under `Cc1ccccc1NC(=O)Cn1cc(S(=O)(=O)N2CCCC2)c(S(=O)(=O)N2CCCC2)c1` stands inactive: -15.8%. On the same count and under the same terms, under `CCOc1ccc(NC(=O)c2nnn(-c3ccc(F)c(Cl)c3)c2C)cc1` stands inactive: 7.82%; under `Cc1cccc(-c2noc(-c3ccc(NCc4cccnc4)c([N+](=O)[O-])c3)n2)c1`, inactive: -4.89%; under `CN(Cc1ccco1)S(=O)(=O)c1nnc(NC(=O)c2ccccc2)s1`, inactive: 12.2%.

`O=C(Nc1ccc(F)cc1)c1ccc2c(c1)NC(=O)c1ccccc1S2`: the “activity change, negative = inhibition” value was inactive: 1.23%. For the molecule `CCc1cccc(NC(=O)Cn2ccn3nc(-c4ccc(OC)c(OC)c4)cc3c2=O)c1`, the “activity change, negative = inhibition” value was inactive: 2.77%. Regarding `Nc1nonc1-c1nc2ccccc2n1CC(=O)Nc1cccc(Cl)c1Cl`, the “activity change, negative = inhibition” value is inactive: -3.43%. As for `Cc1cc(NCc2ccc(Cl)cc2)n2cnnc2n1`, the molecule was called inactive. Take `CCc1ccc(NS(=O)(=O)c2c(-c3ccccc3)csc2C(=O)OC)cc1`: the “activity change, negative = inhibition” value is inactive: -2.19%. With `O=C(Nc1nnc(S(=O)(=O)N2CCCCCC2)s1)c1ccccc1`, the “activity change, negative = inhibition” value was inactive: -0.0862%. Still for that read-out and setting: under `COc1ccccc1N(CC(=O)Nc1cc(C)cc(C)c1)S(C)(=O)=O` stands inactive: -5.3%; under `O=C(NCc1ccccc1Cl)c1ccc(NC(=O)N2CCSc3ccccc32)cc1`, inactive: 6.48%.

As for `COc1ccc(S(=O)(=O)N(CC(=O)Nc2ccc3c(c2)OCO3)c2ccc(C)cc2)cc1`, the outcome was inactive. On to `Cc1ccc(OCc2cc(=O)n3c4c(sc3n2)CCCC4)cc1C`, for which the “activity change, negative = inhibition” value was inactive: -3.69%.

With `COc1cc(OC)cc(C(=O)Nc2ccc3c(c2)n(C)c(=O)c(=O)n3C)c1`, the “activity change, negative = inhibition” value was inactive: -5.23%. Consider `COc1ccc(OC)c(NC(=O)c2c(NCc3ccc(N(C)C)cc3)sc3c2CCCC3)c1`, for which the “activity change, negative = inhibition” value was inactive: -19.6%.

As for `COc1ccc(NC(=O)c2oc3ccccc3c2NC(=O)C23CC4CC(CC(C4)C2)C3)cc1`, the molecule was classed as inactive. As for `Cc1nc2nc(SCC(=O)NC3CCC(C)CC3)nn2c(C)c1Cc1ccccc1Cl` (stereo unspecified), the “activity change, negative = inhibition” value is inactive: -7.9%.

With `Cc1noc(-c2ccc(-c3noc(-c4cccc(Cl)c4)n3)cc2)n1`, the “activity change, negative = inhibition” value was inactive: 1.08%. Still for that read-out and setting: under `Cc1ccc(S(=O)(=O)C(CNC(=O)c2ccc(C(F)(F)F)cc2)c2ccco2)cc1` (stereo unspecified) stands inactive: -6.75%; under `CCc1ccc2occ(CC(=O)Nc3sc4c(c3C(=O)NCCOC)CCCC4)c2c1`, inactive: 5.97%; under `O=C(NCCCc1ccccc1)c1nn(-c2ccccc2)nc1CO`, inactive: -0.122%.

Consider `O=C(Cn1cc(S(=O)(=O)c2ccccc2)c(=O)c2cc3c(cc21)OCO3)Nc1ccccc1`, for which the molecule was called inactive. Consider `Cn1cc(S(=O)(=O)N2CCCCC2)cc1C(=O)Nc1ccc(OC(F)(F)F)cc1`, for which the outcome was inactive.

Consider `Cc1ccc(S(=O)(=O)n2nc(-c3ccco3)nc2NCc2ccc(N(C)C)cc2)cc1`, for which the “activity change, negative = inhibition” value was inactive: -10.8%. Consider `CCc1ccc2oc(-c3ccc(C)c(NC(=O)c4ccc(C#N)cc4F)c3)nc2c1`, for which the “activity change, negative = inhibition” value is inactive: -1.6%.

For the molecule `CCOC(=O)c1ccc(NC(=O)CCC(=O)N2CCSc3ccccc32)cc1`, the “activity change, negative = inhibition” value was inactive: -5.09%. In the case of `CCn1cc2nc(SCc3cccc(C)c3)n(CCc3ccccc3)c(=O)c2n1`, the outcome was inactive.

In the case of `Cc1nc2c(-c3ccccc3)c(C)nn2c(C)c1CCC(=O)NCc1ccccc1`, the “activity change, negative = inhibition” value is inactive: 5.53%.

On to `COC(=O)C1C2CC3c4[nH]c5cc(OC)ccc5c4CCN3CC2CC(OC(=O)c2cc(OC)c(OC)c(OC)c2)C1OC` (stereo unspecified), for which the “activity change, negative = inhibition” value is inactive: 6.43%. In the case of `COc1ccc(CCNC(=O)CCn2c(=O)c3ccccc3n(CC(=O)Nc3cc(Cl)ccc3C)c2=O)cc1OC`, the call was inactive. On to `CCOC(=O)C1CCCN(C(=O)c2ccc3c(c2)N(Cc2ccccc2F)C(=O)c2ccccc2S3=O)C1` (stereo unspecified), for which the outcome was inactive. In the case of `CC(=O)c1cccc(NC(=O)CCCSc2nc(-c3ccco3)cc(C(F)(F)F)n2)c1`, the “activity change, negative = inhibition” value is inactive: -14.3%.

Values taken from PubChem BioAssay AID1963576 (National Center for Advancing Translational Sciences (NCATS), 2024).
